# In the supplement of paper PMC8728848:
# The other results are listed elsewhere or left out.
# Assays:
# Experiment in all cases: glycan array binding signal (z-score within array); higher = stronger binding
# Conditions in all cases: glycan notation: IUPAC condensed, linker removed
# [1] = biological target: Neu5Ac(a2-6)Gal(b1-4)GlcNAc(b1-2)Man(a1-3)[Neu5Ac(a2-3)Gal(b1-4)GlcNAc(b1-2)Man(a1-6)]Man(b1-4)GlcNAc(b1-4)GlcNAc
# Outline: (§1)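 Glycan array data were curated from 3228 arrays in the Consortium for Functional Glycomics database and kept only where the protein sequence was available. Glycan names were converted to IUPAC-condensed notation, and columns mapping to the same glycan were averaged. The binding signal is a within-array Z-score, averaged across arrays of the same protein sequence at different concentrations or buffers and across linkers. Negative Z-scores can be read as non-binding.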
# [2] = biological target: Neu5Ac(a2-6)Gal(b1-4)GlcNAc(b1-2)Man(a1-3)[Neu5Ac(a2-6)Gal(b1-4)GlcNAc(b1-2)Man(a1-6)]Man(b1-4)GlcNAc(b1-4)GlcNAc
# Outline: as §1
# [3] = biological target: Neu5Ac(a2-6)Gal(b1-4)GlcNAc(b1-2)Man(a1-3)[Neu5Ac(a2-6)Gal(b1-4)GlcNAc(b1-2)Man(a1-6)]Man(b1-4)GlcNAc(b1-4)[Fuc(a1-6)]GlcNAc
# Outline: as §1
# [4] = biological target: Neu5Ac(a2-6)Gal(b1-4)GlcNAc(b1-2)Man(a1-6)Man(b1-4)GlcNAc(b1-4)GlcNAc
# Outline: as §1
# [5] = biological target: Neu5Ac(a2-6)Gal(b1-4)GlcNAc(b1-2)Man(a1-6)[Gal(b1-4)GlcNAc(b1-2)Man(a1-3)]Man(b1-4)GlcNAc(b1-4)GlcNAc
# Outline: as §1
# [6] = biological target: Neu5Ac(a2-6)Gal(b1-4)GlcNAc(b1-2)Man(a1-6)[GlcNAc(b1-2)Man(a1-3)]Man(b1-4)GlcNAc(b1-4)GlcNAc
# Outline: as §1
# [7] = biological target: Neu5Ac(a2-6)Gal(b1-4)GlcNAc(b1-2)Man(a1-6)[Man(a1-3)]Man(b1-4)GlcNAc(b1-4)GlcNAc
# Outline: as §1
# [8] = biological target: Neu5Ac(a2-6)Gal(b1-4)GlcNAc(b1-2)[Neu5Ac(a2-6)Gal(b1-4)GlcNAc(b1-4)]Man(a1-3)[GlcNAc(b1-4)][Neu5Ac(a2-6)Gal(b1-4)GlcNAc(b1-2)[Neu5Ac(a2-6)Gal(b1-4)GlcNAc(b1-6)]Man(a1-6)]Man(b1-4)GlcNAc(b1-4)GlcNAc
# Outline: as §1
# [9] = biological target: Neu5Ac(a2-6)Gal(b1-4)GlcNAc(b1-2)[Neu5Ac(a2-6)Gal(b1-4)GlcNAc(b1-4)]Man(a1-3)[GlcNAc(b1-4)][Neu5Ac(a2-6)Gal(b1-4)GlcNAc(b1-4)Man(a1-6)]Man(b1-4)GlcNAc(b1-4)GlcNAc
# Outline: as §1
# [10] = biological target: Neu5Ac(a2-6)Gal(b1-4)GlcNAc(b1-2)[Neu5Ac(a2-6)Gal(b1-4)GlcNAc(b1-6)]Man(a1-6)[Neu5Ac(a2-6)Gal(b1-4)GlcNAc(b1-2)Man(a1-3)][GlcNAc(b1-4)]Man(b1-4)GlcNAc(b1-4)GlcNAc
# Outline: as §1
# [11] = biological target: Neu5Ac(a2-6)Gal(b1-4)GlcNAc(b1-3)Gal(b1-3)GlcNAc
# Outline: as §1
# [12] = biological target: Neu5Ac(a2-6)Gal(b1-4)GlcNAc(b1-3)Gal(b1-4)GlcNAc
# Outline: as §1
# [13] = biological target: Neu5Ac(a2-6)Gal(b1-4)GlcNAc(b1-3)Gal(b1-4)GlcNAc(b1-2)Man(a1-3)[Neu5Ac(a2-6)Gal(b1-4)GlcNAc(b1-3)Gal(b1-4)GlcNAc(b1-2)Man(a1-6)]GalNAc
# Outline: as §1
# [14] = biological target: Neu5Ac(a2-6)Gal(b1-4)GlcNAc(b1-3)Gal(b1-4)GlcNAc(b1-3)Gal(b1-4)GlcNAc
# Outline: as §1
# [15] = biological target: Neu5Ac(a2-6)Gal(b1-4)GlcNAc(b1-3)Gal(b1-4)GlcNAc(b1-3)Gal(b1-4)GlcNAc(b1-2)Man(a1-3)[Neu5Ac(a2-6)Gal(b1-4)GlcNAc(b1-3)Gal(b1-4)GlcNAc(b1-3)Gal(b1-4)GlcNAc(b1-2)Man(a1-6)]GalNAc
# Outline: as §1
# [16] = biological target: Neu5Ac(a2-6)Gal(b1-4)GlcNAc(b1-3)Gal(b1-4)GlcNAc(b1-3)GalNAc
# Outline: as §1
# [17] = biological target: Neu5Ac(a2-6)Gal(b1-4)GlcNAc(b1-3)Gal(b1-4)GlcNAc(b1-3)[Neu5Ac(a2-6)Gal(b1-4)GlcNAc(b1-3)Gal(b1-4)GlcNAc(b1-6)]GalNAc
# Outline: as §1
# [18] = biological target: Neu5Ac(a2-6)Gal(b1-4)GlcNAc(b1-3)Gal(b1-4)GlcNAc(b1-6)[Gal(b1-3)]GalNAc
# Outline: as §1
# [19] = biological target: Neu5Ac(a2-6)Gal(b1-4)GlcNAc(b1-3)Gal(b1-4)[Fuc(a1-3)]GlcNAc(b1-3)Gal(b1-4)[Fuc(a1-3)]GlcNAc
# Outline: as §1
# [20] = biological target: Neu5Ac(a2-6)Gal(b1-4)GlcNAc(b1-3)GalNAc
# Outline: as §1
# [21] = biological target: Neu5Ac(a2-6)Gal(b1-4)GlcNAc(b1-3)[Neu5Ac(a2-6)Gal(b1-4)GlcNAc(b1-6)]GalNAc
# Outline: as §1
# [22] = biological target: Neu5Ac(a2-6)Gal(b1-4)GlcNAc(b1-6)GalNAc
# Outline: as §1
# [23] = biological target: Neu5Ac(a2-6)Gal(b1-4)GlcNAc(b1-6)[Gal(b1-3)GlcNAc(b1-3)]Gal(b1-4)Glc
# Outline: as §1
# [24] = biological target: Neu5Ac(a2-6)Gal(b1-4)GlcNAc(b1-6)[Gal(b1-3)]GalNAc
# Outline: as §1
# [25] = biological target: Neu5Ac(a2-6)Gal(b1-4)GlcNAc6S
# Outline: as §1
# Neu5Ac(a2-6)GalNAc = biological target: Neu5Ac(a2-6)GalNAc
# Outline: as §1
# [26] = biological target: Neu5Ac(a2-6)GalNAc(b1-4)GlcNAc
# Outline: as §1
# [27] = biological target: Neu5Ac(a2-6)GalNAc(b1-4)GlcNAc6S
# Outline: as §1
# [28] = biological target: Neu5Ac(a2-6)GlcNAc(b1-4)GlcNAc
# Outline: as §1
# [29] = biological target: Neu5Ac(a2-6)GlcNAc(b1-4)GlcNAc(b1-4)GlcNAc
# Outline: as §1
binder,measurement,setting,value
"HPA (Helix pomatia), Q575S3 (protein) MWAHLTGLLLICALSLSAAQRAQTGEIDCGSDSSWPKDPSDNPNRDNTREIVKHVTFSPQFCREPKVILSVTTLDAEHTKNLRYEARLKSVSPSGLSASCYSWHDGTIYRMKLSWLAVED",glycan array binding signal (z-score),[1],-0.254
same,glycan array binding signal (z-score),[2],-0.254
same,glycan array binding signal (z-score),[3],-0.259
same,glycan array binding signal (z-score),[4],-0.27
same,glycan array binding signal (z-score),[5],-0.291
same,glycan array binding signal (z-score),[6],-0.257
same,glycan array binding signal (z-score),[7],-0.266
same,glycan array binding signal (z-score),[8],-0.254
same,glycan array binding signal (z-score),[9],-0.258
same,glycan array binding signal (z-score),[10],-0.264
same,glycan array binding signal (z-score),[11],-0.266
same,glycan array binding signal (z-score),[12],-0.263
same,glycan array binding signal (z-score),[13],-0.243
same,glycan array binding signal (z-score),[14],-0.264
same,glycan array binding signal (z-score),[15],-0.164
same,glycan array binding signal (z-score),[16],-0.255
same,glycan array binding signal (z-score),[17],-0.147
same,glycan array binding signal (z-score),[18],-0.238
same,glycan array binding signal (z-score),[19],-0.253
same,glycan array binding signal (z-score),[20],-0.07
same,glycan array binding signal (z-score),[21],-0.258
same,glycan array binding signal (z-score),[22],-0.246
same,glycan array binding signal (z-score),[23],-0.261
same,glycan array binding signal (z-score),[24],-0.257
same,glycan array binding signal (z-score),[25],-0.261
same,glycan array binding signal (z-score),Neu5Ac(a2-6)GalNAc,-0.271
same,glycan array binding signal (z-score),[26],-0.273
same,glycan array binding signal (z-score),[27],-0.254
same,glycan array binding signal (z-score),[28],-0.265
same,glycan array binding signal (z-score),[29],-0.267
